Source: the supplement of paper PMC3334620
Whole data set: some 33,000 sequences, median “E-score (-0.5 to 0.5)” near -0.012, cut for the highest 2% near 0.27. This is one part of the list.

Target: T1, Vhr1 (UniProt P40522)
T1 sequence: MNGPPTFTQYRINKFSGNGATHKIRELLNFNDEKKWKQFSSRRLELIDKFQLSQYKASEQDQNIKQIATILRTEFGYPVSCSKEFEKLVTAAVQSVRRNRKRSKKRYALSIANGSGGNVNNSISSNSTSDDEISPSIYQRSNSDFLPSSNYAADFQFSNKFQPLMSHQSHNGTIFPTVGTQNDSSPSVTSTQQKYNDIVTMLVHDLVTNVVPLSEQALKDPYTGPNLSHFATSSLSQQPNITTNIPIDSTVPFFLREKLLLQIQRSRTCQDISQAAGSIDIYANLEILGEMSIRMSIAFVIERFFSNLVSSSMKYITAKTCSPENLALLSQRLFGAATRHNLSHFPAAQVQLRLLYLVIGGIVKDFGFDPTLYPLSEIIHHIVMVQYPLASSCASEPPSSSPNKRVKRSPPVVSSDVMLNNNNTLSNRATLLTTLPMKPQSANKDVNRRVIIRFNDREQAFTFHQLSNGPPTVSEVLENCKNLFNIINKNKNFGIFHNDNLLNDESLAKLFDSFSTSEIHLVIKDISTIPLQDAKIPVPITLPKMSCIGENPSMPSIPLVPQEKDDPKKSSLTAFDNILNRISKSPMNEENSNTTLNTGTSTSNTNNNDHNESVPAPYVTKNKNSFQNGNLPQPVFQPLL
Assay: PBM E-score (8-mer binding enrichment) (E-score (-0.5 to 0.5)); higher = stronger / more preferred TF binding; most listed sequences are background and not binding sites
Details: protein concentration: 200 nM; construct: GST-full length
How it was run: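 Masliner-normalised scans of fluorescent anti-GST signal were the basis for scoring. That signal came from GST-tagged yeast transcription factors applied at about 100-200 nM to double-stranded universal all-10-mer Agilent arrays on fresh or once-stripped slides. Each ungapped eight-base word, pooled with its reverse complement, received an E-score from the Universal PBM Analysis Suite.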

Compared with CAGCGTGG, ATTTGGTC is higher in “PBM E-score” value: -0.0573 for the first, -0.0199 for the second.

Going from ACATAACC to TCGATTAA, the “PBM E-score” value rises from 0.125 to 0.145.

Going from AGTGCGCC to CGGCTATA, the “PBM E-score” value rises from -0.253 to 0.0118.

First: AACCCCTT
Second: CTCCAAAA
The “PBM E-score” value of the first is higher: -0.186 for the first, -0.203 for the second.

Going from CAAGCACC to CTTACCTA, the “PBM E-score” value rises from -0.0743 to -0.0658.

Going from GACTCGAC to GCCGAGAA, the “PBM E-score” value falls from 0.231 to -0.0559.

Going from AGTTTCTA to CTTTCAGC, the “PBM E-score” value rises from -0.268 to -0.157.

Going from GGTCTAAC to ACCACACG, the “PBM E-score” value rises from -0.0626 to 0.0922.

Compared with GCCTGGTA, CATGGAGG is higher in “PBM E-score” value: -0.109 for the first, -0.101 for the second.

First: CTAGCGCC
Second: CATCCTGC
The “PBM E-score” value of the first is lower: -0.193 for the first, 0.0558 for the second.

First: GCGATTAC
Second: GACCGCGA
The “PBM E-score” value of the first is higher: 0.0647 for the first, -0.0638 for the second.

First: CCACTCAC
Second: CCTTAATA
The “PBM E-score” value of the first is higher: 0.177 for the first, -0.0315 for the second.

Going from GATGCATA to ACTGGTGA, the “PBM E-score” value rises from -0.00795 to 0.122.

Going from CCCCCCCA to CACTCTCC, the “PBM E-score” value rises from -0.185 to 0.0076.

First: CAAGATAG
Second: GGTACAGA
The “PBM E-score” value of the first is lower: 0.0565 for the first, 0.0603 for the second.

First: CGGAAAAG
Second: AACCAGCA
The “PBM E-score” value of the first is lower: -0.0336 for the first, 0.037 for the second.

First: CTAGAGCC
Second: CCACAACC
The “PBM E-score” value of the first is lower: -0.126 for the first, 0.0211 for the second.

Going from AAGAGAGT to GCGTGAGA, the “PBM E-score” value rises from -0.117 to -0.0971.

First: ATTTTTGC
Second: AACCTTTC
The “PBM E-score” value of the first is higher: -0.157 for the first, -0.331 for the second.

Going from ATTGTCGG to ATACTGCG, the “PBM E-score” value falls from 0.13 to -0.00348.

Going from AGTCACAA to CATGGTCC, the “PBM E-score” value falls from 0.391 to 0.109.

Going from CCCGACAC to CAAGTTGG, the “PBM E-score” value rises from -0.0659 to -0.0134.

Going from ATCCCATA to AAGCGCGG, the “PBM E-score” value rises from -0.0213 to 0.062.

First: ATGAGGAA
Second: CCAAGCGA
The “PBM E-score” value of the first is lower: -0.0839 for the first, -0.012 for the second.

Going from CATGCGGC to ATAGCAAA, the “PBM E-score” value falls from 0.0506 to -0.0488.

Compared with GTATGAGA, GCAAGCCC is higher in “PBM E-score” value: 0.0299 for the first, 0.144 for the second.

First: CACGCAGA
Second: TATGGGAA
The “PBM E-score” value of the first is lower: -0.0828 for the first, -0.0572 for the second.

First: AAAAACGA
Second: ACTACAAC
The “PBM E-score” value of the first is lower: -0.0586 for the first, 0.212 for the second.

First: TCTCCGCA
Second: CACATGGG
The “PBM E-score” value of the first is lower: -0.0442 for the first, 0.0571 for the second.

First: AGCATCCC
Second: AGACCGAT
The “PBM E-score” value of the first is lower: -0.216 for the first, 0.00577 for the second.

Going from GTTGGGGA to AGTGGGTA, the “PBM E-score” value falls from 0.158 to 0.156.

First: CAGGTACC
Second: AGTCTGCG
The “PBM E-score” value of the first is lower: -0.0628 for the first, -0.0483 for the second.

First: GAAGCGTC
Second: GAACGGGC
The “PBM E-score” value of the first is higher: -0.157 for the first, -0.202 for the second.

Going from CCTCCTCG to GCGAGACC, the “PBM E-score” value rises from -0.0913 to -0.049.

Going from ACTTGTTC to GCTGACCA, the “PBM E-score” value rises from -0.235 to 0.166.

First: GAAGAACC
Second: AATGAATT
The “PBM E-score” value of the first is lower: 0.0141 for the first, 0.0558 for the second.

Compared with AGCACGAG, GGTATCAA is lower in “PBM E-score” value: 0.138 for the first, -0.00548 for the second.

Compared with CGAGAACG, AGGGATCC is lower in “PBM E-score” value: -0.141 for the first, -0.151 for the second.

Compared with ATGTCGCG, CCTCCCGC is higher in “PBM E-score” value: -0.0514 for the first, 0.065 for the second.

Going from ACAGGACC to AGAGTCCC, the “PBM E-score” value falls from 0.00265 to -0.205.

Going from ATGTGCAC to AAGCAGCT, the “PBM E-score” value falls from -0.14 to -0.17.

Compared with CTGCTGCC, GGTAGACA is higher in “PBM E-score” value: -0.0622 for the first, 0.156 for the second.

Going from ATCTCTTA to AACCGTGG, the “PBM E-score” value rises from -0.119 to -0.0687.

Going from ACCCAGTA to CCGCGCGC, the “PBM E-score” value rises from 0.00795 to 0.258.

Compared with AATAGAGA, GCATAGAA is higher in “PBM E-score” value: -0.166 for the first, -0.00043 for the second.

Compared with CAAGCGAG, CATCCCCA is lower in “PBM E-score” value: 0.126 for the first, 0.111 for the second.

First: ACGAACGG
Second: GTGGAGTA
The “PBM E-score” value of the first is higher: 0.085 for the first, 0.0296 for the second.

First: ACGTCTCG
Second: CATTAATA
The “PBM E-score” value of the first is lower: -0.0249 for the first, 0.139 for the second.

Compared with AGACGCCA, GCGATCCA is higher in “PBM E-score” value: -0.102 for the first, 0.172 for the second.

Going from TACCTTCA to CCAGCCAG, the “PBM E-score” value rises from -0.114 to -0.0814.

First: AGATATTA
Second: CATGATCA
The “PBM E-score” value of the first is lower: 0.0158 for the first, 0.197 for the second.

First: TAAGAGTA
Second: CCAGAGGC
The “PBM E-score” value of the first is lower: -0.137 for the first, -0.133 for the second.

Going from CTGCATTA to GGACTGGA, the “PBM E-score” value falls from -0.0315 to -0.0542.

First: AGGCTATA
Second: ACCTGGGG
The “PBM E-score” value of the first is higher: -0.0453 for the first, -0.148 for the second.

Going from CCGCTTAA to CGACGCCC, the “PBM E-score” value rises from -0.13 to 0.0794.

First: CATCAGCC
Second: GATCAAGA
The “PBM E-score” value of the first is higher: 0.0877 for the first, 0.0476 for the second.

First: AATGAAAC
Second: AACGCGGG
The “PBM E-score” value of the first is lower: 0.105 for the first, 0.223 for the second.

Compared with CACCGAGG, AAACTCGG is higher in “PBM E-score” value: -0.113 for the first, -0.0264 for the second.

Going from ACCTCCTG to ACCCTGGG, the “PBM E-score” value rises from -0.139 to 0.12.

Going from TGTCGACA to AGGTGAAG, the “PBM E-score” value rises from -0.113 to -0.0547.

Compared with GTACATAA, GCCGCCCC is higher in “PBM E-score” value: -0.0295 for the first, 0.0606 for the second.

Compared with ATCGGCAA, ACTGCAGC is higher in “PBM E-score” value: -0.187 for the first, -0.0864 for the second.

Going from ACCGCCAC to AAGGAATT, the “PBM E-score” value falls from 0.0902 to -0.162.

Compared with AAAGAGTC, AAGTGTCT is lower in “PBM E-score” value: 0.0469 for the first, 0.00039 for the second.

Going from ATTTACAG to ACAGATTC, the “PBM E-score” value rises from -0.131 to -0.0532.

Compared with GCACCGCA, CAACCATC is higher in “PBM E-score” value: 0.0151 for the first, 0.0512 for the second.

First: GGTTCGAC
Second: ACTACGCA
The “PBM E-score” value of the first is higher: 0.202 for the first, 0.0966 for the second.

Compared with CAGAGAGC, AACGGGCC is lower in “PBM E-score” value: -0.0972 for the first, -0.204 for the second.

Going from TGACACAA to AATGTGTC, the “PBM E-score” value rises from 0.0494 to 0.0746.

Compared with CCATCCCA, CGTTCTCA is lower in “PBM E-score” value: 0.0849 for the first, -0.134 for the second.

First: CCCTTAGA
Second: ACAAATTA
The “PBM E-score” value of the first is lower: -0.275 for the first, 0.0867 for the second.

Going from ATGGGTCA to AGTGCATA, the “PBM E-score” value falls from 0.263 to 0.0602.

Compared with ATCTCCCC, ATGGGAGC is lower in “PBM E-score” value: 0.0454 for the first, 0.00189 for the second.

Compared with TAGCCATA, ACGCTAGC is lower in “PBM E-score” value: 0.143 for the first, -0.322 for the second.

Going from CAACTGGA to GATGCGCC, the “PBM E-score” value rises from -0.121 to 0.0507.

First: AAGAATTG
Second: TGAGCCAA
The “PBM E-score” value of the first is lower: -0.134 for the first, -0.0117 for the second.

Going from GACACACC to CTATGCAC, the “PBM E-score” value falls from 0.28 to 0.0285.

Compared with AGAATTAC, GCTAGAAA is lower in “PBM E-score” value: -0.0111 for the first, -0.0866 for the second.

First: CTCACACA
Second: GAATGTCA
The “PBM E-score” value of the first is higher: 0.299 for the first, -0.0258 for the second.

Compared with CCAGACCA, AGCGATCC is lower in “PBM E-score” value: 0.0519 for the first, -0.0495 for the second.

Going from GCTCTGGA to AGCTCCCT, the “PBM E-score” value falls from -0.0124 to -0.235.

Going from AACGATGT to CAGGCATG, the “PBM E-score” value rises from 0.0466 to 0.114.

Compared with CAGCGACG, GCTAGACC is lower in “PBM E-score” value: 0.0816 for the first, -0.0837 for the second.

Compared with GTTACGTA, CATAGAAA is higher in “PBM E-score” value: -0.216 for the first, 0.102 for the second.

Going from ATGCAGGA to CCAATTCA, the “PBM E-score” value rises from 0.0825 to 0.115.

Going from CTTAAGTA to GGTAAATA, the “PBM E-score” value rises from -0.199 to -0.058.
